Measured values: PubChem BioAssay AID504832 (National Center for Advancing Translational Sciences (NCATS), 2011)
The campaign covered roughly 310,000 compounds. About 18,000 (5.8%) were called active. This list was built around the results that the source calls inconclusive (neither active nor inactive); the mix of calls is not that of the screen. Calls come from the whole dose curve; as a rule, active = well fitted inhibition curve with a large enough effect; inconclusive = small, poorly fitted or top-dose-only effect, or another doubt; inactive = no such curve, though single readings can be large or run the other way. No potency is given beside an inconclusive call; the fits are too rough.

Test: Primary qHTS for delayed death inhibitors of the malarial parasite plastid, 48 hour incubation
Details: P. falciparum luciferase growth in erythrocytes; series mostly up to 28.7 µM
In short: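 Parasite viability was followed by luminescence of a genomically integrated firefly luciferase. Cultures held 0.1% parasitemia at 2% hematocrit (final), incubated under 5% CO2 at 37 C.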
Potency is the fitted concentration of half-maximal effect; tags give direction and shape of the fitted curve.

Structure (SMILES) | Potency
CCOc1cccc(/C=N/NC(=O)c2cc(-c3cccn3C)n[nH]2)c1O | inconclusive [inhibitor, partial curve, poor fit]
COc1ccc(N2CCN(CC(=O)Nc3nnc(-c4ccccc4)s3)CC2)cc1 | inconclusive [inhibitor, partial curve, poor fit]
CCOC(=O)c1cnc(SCC(=O)c2ccccc2)nc1N | inactive
O=S(=O)(Nc1nc2ccccc2nc1-[n+]1cccc(N=C([O-])c2ccccc2Cl)c1)c1ccccc1 | active: 8.28 µM
C=CCn1c(SCC(=O)Nc2c(C)n(C)n(-c3ccccc3)c2=O)nc2sc(C)c(C)c2c1=O | inconclusive [inhibitor, partial curve, poor fit]
O=C(CSc1nc2c(c(=O)n1-c1ccccc1)SCC2)N1CCN(c2ccccc2)CC1 | inconclusive [inhibitor, partial curve, poor fit]
CCCCn1c(NC(=O)CC)c(C#N)c2nc3ccccc3nc21 | inactive
CCOC(=O)C1=C(COC(=O)c2cc(OC)c(OC)cc2[N+](=O)[O-])NC(=O)NC1C (stereo unspecified) | inactive
CC(/C=N/NC(=O)c1cc(C(C)(C)C)[nH]n1)=C\c1ccccc1 | inconclusive [inhibitor, single point]
Nc1ccc(Br)cc1C(=O)O | inactive
NC(=O)c1ccc(NC(=O)COC(=O)c2ccc3c(c2)OCO3)cc1 | inconclusive [inhibitor, single point]
Cc1ccc(Cn2c(C(=O)NCCCN3CCOCC3)cc3sccc32)cc1 | active: 11.7 µM
Cc1cc(C)c2c(CC(=O)NC(C)C)coc2c1 | inactive
COc1ccc(/C=N/Nc2nc(-c3ccc(Cl)cc3)cc(C(F)(F)F)n2)cc1OC | inconclusive [inhibitor, single point]
CCNC(=S)NC(=NCc1cccnc1)Nc1nc(C)cc(C)n1 | inconclusive [inhibitor, single point]
COc1ccc(Nc2nnc(SC(C(=O)Nc3cc(C)ccc3C)c3ccccc3)s2)cc1 (stereo unspecified) | inconclusive [inhibitor, partial curve, poor fit]
COc1ccc(CCNc2nc(C)nc3c2nnn3Cc2ccccc2)cc1 | inactive
CN(C)CCN(C)Cc1c2ccccc2c(CN(C)CCN(C)C)c2ccccc12 | active: 6.57 µM
CC(=O)N(C1CC(C)C(C#N)(C#N)C1(C#N)C#N)N(C)C (stereo unspecified) | inactive
Cc1ccc([N+](=O)[O-])cc1NC(=S)NC(=O)CC(C)(C)C | inactive
CC(Sc1ccc(S(=O)(=O)N2CCN(C)CC2)cn1)C(=O)NC1(C#N)CCCCC1 (stereo unspecified) | inconclusive [inhibitor, single point]
CCCCn1nnnc1SCC(=O)Nc1ccc2c(c1)OCCO2 | inactive
O=C(Cn1c(=O)oc2cc(S(=O)(=O)N3CCCCC3)ccc21)N1CCCCC1 | inactive
CCOc1cccc2sc(N(CCCN(C)C)C(=O)c3ccc(C(=O)c4ccccc4)cc3)nc12 | inconclusive [inhibitor, single point]

Structure (SMILES) | Potency
Cc1ccc2nc(SCC(=O)NC(=O)NCc3ccco3)[nH]c2c1 | inconclusive [inhibitor, single point]
COc1ccc(N2CCN(c3ccc(N)cc3C#N)CC2)cc1 | inactive
Cc1csc(SCC(=O)Nc2ccc(Cl)cn2)n1 | inactive
O=C(OC(C(=O)NC1CCCCC1)c1ccc(C(F)(F)F)cc1)c1ccco1 (stereo unspecified) | inconclusive [inhibitor, single point]
O=C(CCC1CCCN(C(=O)c2ccco2)C1)NCc1ccccc1F (stereo unspecified) | inactive
O=C(c1ccccc1CCc1ccccc1)N1CCCC1 | inconclusive [inhibitor, partial curve, poor fit]
O=C(CN1CCCC1=O)NC1(C(F)(F)F)NC(=O)N(Cc2ccccc2)C1=O (stereo unspecified) | inactive
COc1ccccc1NS(=O)(=O)c1cc(NC(=O)c2ccc(Cl)nc2)ccc1Cl | active: 1.65 µM
COc1ccc(N(C(C)=O)c2nc(C)cc(C)c2C#N)c(OC)c1 | inactive
CCOC(=O)c1ccccc1NC(=O)CSc1ccccc1 | inconclusive [inhibitor, partial curve, poor fit]
COc1cccc(N=c2oc3cc(O)ccc3cc2C(=O)NCC2CCCO2)c1 (stereo unspecified) | inconclusive [inhibitor, single point]
O=C(c1ccccc1)N1CCN(C2c3cccc4cccc(c34)C2NS(=O)(=O)c2ccccc2)CC1 (stereo unspecified) | active: 6.57 µM
CC(C)N(Cc1ccccc1)C(=S)NCc1ccccc1 | inconclusive [inhibitor, partial curve, poor fit]
O=C(N/N=C\c1cc(Br)cs1)c1ccncc1 | inconclusive [inhibitor, single point]
O=C(N/N=C/C=C/c1ccco1)c1cnccn1 | inconclusive [inhibitor, partial curve, poor fit]
Cc1[nH]c2ccccc2c1/C=C(\C#N)C(=O)NC(C)c1ccccc1 (stereo unspecified) | inconclusive [inhibitor, partial curve, poor fit]
Cc1cc(C)cc(C(=O)N2CCC(C(N)=O)CC2)c1 | inactive
CCOc1ccc(N2C(=O)CC(N(CCc3ccc(OC)cc3)C(=O)c3cccc(F)c3)C2=O)cc1 (stereo unspecified) | inactive
COc1ccc(NC(=O)COC(=O)c2cc([N+](=O)[O-])ccc2N2CCOCC2)cc1 | inactive
O=C1N(Cc2cccnc2)C[C@@H]2C[C@@H](c3ccccc3C#Cc3ccccc3)N3CCC[C@@]123 | inconclusive [inhibitor, partial curve]
CCn1c(SCC(=O)Nc2nc(-c3ccc(C)cc3)cs2)nnc1-c1ccccc1O | inconclusive [inhibitor, full curve]
O=C(Nc1cc2c(cc1C(=O)O)OCCCO2)c1ccc(C(F)(F)F)cc1 | inactive
C/C(Cn1nnc([N+](=O)[O-])n1)=N\NC(=O)c1cccc(Cl)c1 | inconclusive [inhibitor, single point]
CN1CCN(C2=Cc3ccccc3Sc3cc(F)c(F)cc32)CC1 | active: 6.57 µM

Structure (SMILES) | Potency
CCc1cccc(NC(=O)CN(C)C2=NS(=O)(=O)c3ccccc32)c1 | inconclusive [inhibitor, single point]
O=C(N/N=C/c1cc(Br)cc(Br)c1O)c1cccc(N2CCCC2=O)c1 | inactive
COc1ccc(CNC(=O)N2CCN(S(=O)(=O)c3ccccc3)CC2)cc1 | inactive
Cc1ccc(N(C(=O)c2ccco2)C(C(=O)NC2CCCC2)c2ccco2)c(C)c1 (stereo unspecified) | inconclusive [inhibitor, single point]
Cc1nnnn1/C(=C\c1ccccc1)C(=O)OCC(=O)N1CC2(C)CC1CC(C)(C)C2 (stereo unspecified) | active: 11.7 µM
Cc1scc(C(=O)NCc2ccco2)c1-c1ccccc1 | inconclusive [inhibitor, full curve, poor fit]
CSc1cccc(N2CC(C(=O)N(CC(C)C)c3c(N)n(Cc4ccccc4)c(=O)[nH]c3=O)CC2=O)c1 (stereo unspecified) | inconclusive [inhibitor, partial curve, poor fit]
Cc1cc(N2CCN(c3nc(-c4ccc([N+](=O)[O-])cc4)cs3)CC2)c2ccccc2n1 | inconclusive [inhibitor, full curve, poor fit]
CCOC(=O)C1CCN(S(=O)(=O)c2ccc3c(c2)NC(=O)C(C)S3)CC1 (stereo unspecified) | inconclusive [inhibitor, single point]
CC(=O)[C@H]1[C@@H]2C(=O)N(c3cccc(Cl)c3)C(=O)[C@@H]2[C@H]2c3ccccc3C=CN21 | inconclusive [inhibitor, partial curve, poor fit]
O=C(CCNC(=O)c1ccc([N+](=O)[O-])cc1)Nc1ccc(S(=O)(=O)N2CCOCC2)cc1 | inconclusive [inhibitor, partial curve, poor fit]
O=C(c1cccc(S(=O)(=O)N2CCOCC2)c1)N1CCN(c2ccc(F)cc2)CC1 | inconclusive [inhibitor, full curve, poor fit]
CCC(CO)NC(=O)c1cccc(S(=O)(=O)N2c3ccccc3CC2C)c1 (stereo unspecified) | inconclusive [inhibitor, partial curve, poor fit]
CCCCCCCn1c(=O)c(C(=O)OC)c(N)c2ccccc21 | inconclusive [inhibitor, partial curve]
Cc1ccc(S(=O)(=O)NCCC(=O)OCc2ccc([N+](=O)[O-])cc2)cc1C | inactive
COC(=O)[C@@H]1[C@@H](C#N)C2(c3ccccc3-c3ccccc32)N(c2ccc(Cl)cc2)N1C#N | inactive
CN(C)C(CNc1ccc([N+](=O)[O-])cc1C#N)c1ccccc1 (stereo unspecified) | inactive
CCc1nc2ccccc2nc1N1CCN(S(=O)(=O)c2c(C)cc(Cl)cc2C)CC1 | inactive
COc1ccc(N/N=C(/Oc2ccc([N+](=O)[O-])cc2)C(C)=O)cc1 | inconclusive [inhibitor, single point]
CCN(CC)c1ccc2c(Nc3ccccc3)c(C=O)c(=O)oc2c1 | inactive
O=C(CSc1nnc(Cc2ccccc2)o1)N1CCCC1 | inactive
Cc1nn(-c2ccc(N3CCCCC3)nn2)c(C)c1CCC(=O)Nc1ccc(F)c(F)c1 | inactive
CCOC(=O)N1CCN(C(=O)CN(c2cccc(C)c2)S(=O)(=O)c2ccc(C)cc2)CC1 | inconclusive [inhibitor, single point]
